Measured values as given in paper PMC7265330.
No constants are given. Whether binding was seen depends on the method and setting. Binding seen in cells or lysates may run through a third protein. Some entries that bind do so weakly or less than the wild type. For some assays here: Tags and fused reporters may be left off the sequences shown.

Chains of the proteins cited; added tags and fusions are not shown.
UniProt P14635: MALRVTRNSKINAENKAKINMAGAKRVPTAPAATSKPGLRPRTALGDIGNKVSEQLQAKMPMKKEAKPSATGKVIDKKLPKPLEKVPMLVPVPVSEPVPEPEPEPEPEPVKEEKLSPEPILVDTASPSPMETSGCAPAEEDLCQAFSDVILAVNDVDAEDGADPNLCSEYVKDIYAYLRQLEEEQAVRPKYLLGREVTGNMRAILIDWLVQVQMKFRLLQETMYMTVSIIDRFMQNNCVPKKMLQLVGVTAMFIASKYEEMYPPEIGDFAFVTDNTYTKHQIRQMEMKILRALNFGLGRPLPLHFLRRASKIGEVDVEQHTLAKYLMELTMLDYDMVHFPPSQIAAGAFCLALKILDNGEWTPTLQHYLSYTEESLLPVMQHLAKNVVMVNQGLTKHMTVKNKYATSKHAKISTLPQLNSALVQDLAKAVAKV

B1: MAD1α (protein, UniProt Q9Y6D9-1 1-718)
chain: MEDLGENTMVLSTLRSLNNFISQRVEGGSGLDISTSAPGSLQMQYQQSMQLEERAEQIRSKSHLIQVEREKMQMELSHKRARVELERAASTSARNYEREVDRNQELLTRIRQLQEREAGAEEKMQEQLERNRQCQQNLDAASKRLREKEDSLAQAGETINALKGRISELQWSVMDQEMRVKRLESEKQELQEQLDLQHKKCQEANQKIQELQASQEARADHEQQIKDLEQKLSLQEQDAAIVKNMKSELVRLPRLERELKQLREESAHLREMRETNGLLQEELEGLQRKLGRQEKMQETLVGLELENERLLAKLQSWERLDQTMGLSIRTPEDLSRFVVELQQRELALKDKNSAVTSSARGLEKARQQLQEELRQVSGQLLEERKKRETHEALARRLQKRVLLLTKERDGMRAILGSYDSELTPAEYSPQLTRRMREAEDMVQKVHSHSAEMEAQLSQALEELGGQKQRADMLEMELKMLKSQSSSAEQSFLFSREEADTLRLKVEELEGERSRLEEEKRMLEAQLERRALQGDYDQSRTKVLHMSLNPTSVARQRLREDHSQLQAECERLRGLLRAMERGGTVPADLEAAAASLPSSKEVAELKKQVESAELKNQRLKEVFQTKIQEFRKACYTLTGYQIDITTENQYRLTSLYAEHPGDCLIFKATSPSGSKMQLLETEFSHTVGELIEVHLRRQDSIPAFLSSLTLELFSRQTVA
B2: Flag-epitope tagged MAD1α (protein, UniProt Q9Y6D9-1 1-718)
chain: MEDLGENTMVLSTLRSLNNFISQRVEGGSGLDISTSAPGSLQMQYQQSMQLEERAEQIRSKSHLIQVEREKMQMELSHKRARVELERAASTSARNYEREVDRNQELLTRIRQLQEREAGAEEKMQEQLERNRQCQQNLDAASKRLREKEDSLAQAGETINALKGRISELQWSVMDQEMRVKRLESEKQELQEQLDLQHKKCQEANQKIQELQASQEARADHEQQIKDLEQKLSLQEQDAAIVKNMKSELVRLPRLERELKQLREESAHLREMRETNGLLQEELEGLQRKLGRQEKMQETLVGLELENERLLAKLQSWERLDQTMGLSIRTPEDLSRFVVELQQRELALKDKNSAVTSSARGLEKARQQLQEELRQVSGQLLEERKKRETHEALARRLQKRVLLLTKERDGMRAILGSYDSELTPAEYSPQLTRRMREAEDMVQKVHSHSAEMEAQLSQALEELGGQKQRADMLEMELKMLKSQSSSAEQSFLFSREEADTLRLKVEELEGERSRLEEEKRMLEAQLERRALQGDYDQSRTKVLHMSLNPTSVARQRLREDHSQLQAECERLRGLLRAMERGGTVPADLEAAAASLPSSKEVAELKKQVESAELKNQRLKEVFQTKIQEFRKACYTLTGYQIDITTENQYRLTSLYAEHPGDCLIFKATSPSGSKMQLLETEFSHTVGELIEVHLRRQDSIPAFLSSLTLELFSRQTVA
B3: MAD1-Flag (39-329aa), wild type (domain or fragment, UniProt Q9Y6D9 39-329)
chain: GSLQMQYQQSMQLEERAEQIRSKSHLIQVEREKMQMELSHKRARVELERAASTSARNYEREVDRNQELLTRIRQLQEREAGAEEKMQEQLERNRQCQQNLDAASKRLREKEDSLAQAGETINALKGRISELQWSVMDQEMRVKRLESEKQELQEQLDLQHKKCQEANQKIQELQASQEARADHEQQIKDLEQKLSLQEQDAAIVKNMKSELVRLPRLERELKQLREESAHLREMRETNGLLQEELEGLQRKLGRQEKMQETLVGLELENERLLAKLQSWERLDQTMGLSIR
B4: MAD1 (parental RPE cells) (protein, UniProt Q9Y6D9 1-718)
chain: MEDLGENTMVLSTLRSLNNFISQRVEGGSGLDISTSAPGSLQMQYQQSMQLEERAEQIRSKSHLIQVEREKMQMELSHKRARVELERAASTSARNYEREVDRNQELLTRIRQLQEREAGAEEKMQEQLERNRQCQQNLDAASKRLREKEDSLAQAGETINALKGRISELQWSVMDQEMRVKRLESEKQELQEQLDLQHKKCQEANQKIQELQASQEARADHEQQIKDLEQKLSLQEQDAAIVKNMKSELVRLPRLERELKQLREESAHLREMRETNGLLQEELEGLQRKLGRQEKMQETLVGLELENERLLAKLQSWERLDQTMGLSIRTPEDLSRFVVELQQRELALKDKNSAVTSSARGLEKARQQLQEELRQVSGQLLEERKKRETHEALARRLQKRVLLLTKERDGMRAILGSYDSELTPAEYSPQLTRRMREAEDMVQKVHSHSAEMEAQLSQALEELGGQKQRADMLEMELKMLKSQSSSAEQSFLFSREEADTLRLKVEELEGERSRLEEEKRMLEAQLERRALQGDYDQSRTKVLHMSLNPTSVARQRLREDHSQLQAECERLRGLLRAMERGGTVPADLEAAAASLPSSKEVAELKKQVESAELKNQRLKEVFQTKIQEFRKACYTLTGYQIDITTENQYRLTSLYAEHPGDCLIFKATSPSGSKMQLLETEFSHTVGELIEVHLRRQDSIPAFLSSLTLELFSRQTVA
B5: MAD1 E53K/E56K (RPE clones 7D2 and 8B12) (protein, UniProt Q9Y6D9 1-718)
chain: MEDLGENTMVLSTLRSLNNFISQRVEGGSGLDISTSAPGSLQMQYQQSMQLEKRAKQIRSKSHLIQVEREKMQMELSHKRARVELERAASTSARNYEREVDRNQELLTRIRQLQEREAGAEEKMQEQLERNRQCQQNLDAASKRLREKEDSLAQAGETINALKGRISELQWSVMDQEMRVKRLESEKQELQEQLDLQHKKCQEANQKIQELQASQEARADHEQQIKDLEQKLSLQEQDAAIVKNMKSELVRLPRLERELKQLREESAHLREMRETNGLLQEELEGLQRKLGRQEKMQETLVGLELENERLLAKLQSWERLDQTMGLSIRTPEDLSRFVVELQQRELALKDKNSAVTSSARGLEKARQQLQEELRQVSGQLLEERKKRETHEALARRLQKRVLLLTKERDGMRAILGSYDSELTPAEYSPQLTRRMREAEDMVQKVHSHSAEMEAQLSQALEELGGQKQRADMLEMELKMLKSQSSSAEQSFLFSREEADTLRLKVEELEGERSRLEEEKRMLEAQLERRALQGDYDQSRTKVLHMSLNPTSVARQRLREDHSQLQAECERLRGLLRAMERGGTVPADLEAAAASLPSSKEVAELKKQVESAELKNQRLKEVFQTKIQEFRKACYTLTGYQIDITTENQYRLTSLYAEHPGDCLIFKATSPSGSKMQLLETEFSHTVGELIEVHLRRQDSIPAFLSSLTLELFSRQTVA

What was measured:
[1] = target: cyclin B1 (human (endogenous in HeLa)) (UniProt P14635); experiment: co-IP; HeLa cells synchronised in G2 phase or mitosis (endogenous MAD1, or Flag-tagged MAD1 forms induced with tetracycline for 12 h); lysates in 0.5% NP-40, 140 mM NaCl, 10 mM KCl, 50 mM Hepes pH 7.2, 10% glycerol, 1 mM EDTA; anti-cyclin B1 (GNS1) on Protein G-Dynabeads, 1 h at 4°C; blotted with anti-MAD1 or anti-FLAG
[2] = target: cyclin B1 (RPE cyclin B1-Venus+/−:Ruby-MAD2+/− cells) (human (endogenous in RPE1)) (UniProt P14635); experiment: co-IP; RPE cyclin B1-Venus+/−:Ruby-MAD2+/− cells (parental, clones 7D2 and 8B12) enriched for G2 phase and mitosis; cyclin B1 immunoprecipitated, blotted with anti-MAD1

Binder	binding [1]	binding [2]
B1	binds	
B2	binds	
B3	binds	
B4		binds
B5		no binding
